Results are given in words; binding and its absence hold for the method and conditions named. In cells and extracts the contact can be indirect. Some binding calls cover weakened binding; strength is not graded here. Sequences can lack the tags named with a protein.
B1: CSF1R carboxyl-terminal fragment (CTF, 514 aa - 972 aa), HA-tagged (domain or fragment, UniProt P07333 514-972)
chain: LFTPVVVACMSIMALLLLLLLLLLYKYKQKPKYQVRWKIIESYEGNSYTFIDPTQLPYNEKWEFPRNNLQFGKTLGAGAFGKVVEATAFGLGKEDAVLKVAVKMLKSTAHADEKEALMSELKIMSHLGQHENIVNLLGACTHGGPVLVITEYCCYGDLLNFLRRKAEAMLGPSLSPGQDPEGGVDYKNIHLEKKYVRRDSGFSSQGVDTYVEMRPVSTSSNDSFSEQDLDKEDGRPLELRDLLHFSSQVAQGMAFLASKNCIHRDVAARNVLLTNGHVAKIGDFGLARDIMNDSNYIVKGNARLPVKWMAPESIFDCVYTVQSDVWSYGILLWEIFSLGLNPYPGILVNSKFYKLVKDGYQMAQPAFAPKNIYSIMQACWALEPTHRPTFQQICSFLQEQAQEDRRERDYTNLPSSSRSGGSGSSSSELEEESSSEHLTCCEQGDIAQPLLQPNNYQFC

Legend:
Assay in all cases: co-IP; HEK293T cells co-transfected with HA-tagged CSF1R and Myc-tagged TREM2 constructs, lysed after 24 h in 1% TNEN (50 mM Tris-HCl pH 8.0, 150 mM NaCl, 2 mM EDTA, 1% NP-40); immunoprecipitated with anti-Myc or HA antibodies and Protein G Dynabeads; immunoblot
[1] = target: T1, Myc-tagged full-length TREM2 (triggering receptor expressed on myeloid cells-2) (UniProt Q9NZC2)
T1 sequence: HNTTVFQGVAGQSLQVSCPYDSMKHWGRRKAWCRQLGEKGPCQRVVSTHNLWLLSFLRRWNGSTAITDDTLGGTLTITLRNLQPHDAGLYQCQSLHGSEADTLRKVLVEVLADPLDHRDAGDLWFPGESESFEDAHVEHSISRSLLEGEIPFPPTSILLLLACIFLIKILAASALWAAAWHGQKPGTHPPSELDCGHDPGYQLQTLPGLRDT

[2] = target: T2, TREM2-CTF (164 aa - 230 aa), Myc-tagged (UniProt Q9NZC2)
T2 sequence: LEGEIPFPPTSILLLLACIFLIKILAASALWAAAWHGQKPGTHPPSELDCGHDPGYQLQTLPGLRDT

[3] = target: T3, TREM2-NTF (1 aa -171 aa), Myc-tagged (UniProt Q9NZC2)
T3 sequence: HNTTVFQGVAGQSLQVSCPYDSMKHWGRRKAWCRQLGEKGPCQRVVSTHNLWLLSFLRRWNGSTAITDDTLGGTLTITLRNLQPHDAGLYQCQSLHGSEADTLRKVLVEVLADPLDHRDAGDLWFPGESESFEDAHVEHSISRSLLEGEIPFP

Row | Molecule | binding [1] | binding [2] | binding [3]
1 | CSF1R amino-terminal fragment (NTF, 1 aa - 514 aa), HA-tagged (from UniProt P07333 20-514) (domain or fragment) | no binding | – | –
2 | HA-tagged full-length CSF1R (colony-stimulating factor 1 receptor) (from UniProt P07333 20-972) | binds | binds | binds
3 | B1 | binds | – | –

Reference: paper PMC8027073
